Consider 27 sequences from publication PMC5700166.

The list shows a part of the results, in another mix than the full data. The list includes weakly bound sequences.

Test in all cases: protein-binding microarray (PBM)
Conditions in all cases: PBM: ~300 nM protein, 6 mM HEPES pH 7.8, 80 mM KCl, 0.5 mM EDTA, 0.5 mM EGTA, 6% glycerol, 35 ng/ul poly-dIdC, 1% milk, 1 h, room temperature; Ap Aiptasia and Nv Nematostella (sea anemones) / Co Capsaspora / Aq Amphimedon (sponge) / Dm Drosophila / Hu human; RHD is the Rel homology domain; high values mean tight binding; most listed sequences are background and not binding sites; double strand, one strand shown

One experiment concerns the target T1, GST-Ap-NF-kB RHD (UniProt A0A913YAJ5).
T1 sequence: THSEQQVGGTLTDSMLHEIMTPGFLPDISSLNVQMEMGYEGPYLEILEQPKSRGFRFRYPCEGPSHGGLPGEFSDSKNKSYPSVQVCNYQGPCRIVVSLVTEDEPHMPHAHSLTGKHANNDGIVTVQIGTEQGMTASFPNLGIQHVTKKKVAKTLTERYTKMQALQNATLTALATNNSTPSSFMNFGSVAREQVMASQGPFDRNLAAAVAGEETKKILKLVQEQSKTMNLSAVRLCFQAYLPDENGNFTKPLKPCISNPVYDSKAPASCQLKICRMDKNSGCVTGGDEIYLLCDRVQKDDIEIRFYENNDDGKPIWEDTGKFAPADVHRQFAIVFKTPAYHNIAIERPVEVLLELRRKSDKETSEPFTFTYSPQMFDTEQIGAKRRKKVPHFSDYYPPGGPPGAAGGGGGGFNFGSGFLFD

Experiment [1] addresses T2, GST-Nv-NF-kB (Cys allele) (UniProt E5G601).
T2 sequence: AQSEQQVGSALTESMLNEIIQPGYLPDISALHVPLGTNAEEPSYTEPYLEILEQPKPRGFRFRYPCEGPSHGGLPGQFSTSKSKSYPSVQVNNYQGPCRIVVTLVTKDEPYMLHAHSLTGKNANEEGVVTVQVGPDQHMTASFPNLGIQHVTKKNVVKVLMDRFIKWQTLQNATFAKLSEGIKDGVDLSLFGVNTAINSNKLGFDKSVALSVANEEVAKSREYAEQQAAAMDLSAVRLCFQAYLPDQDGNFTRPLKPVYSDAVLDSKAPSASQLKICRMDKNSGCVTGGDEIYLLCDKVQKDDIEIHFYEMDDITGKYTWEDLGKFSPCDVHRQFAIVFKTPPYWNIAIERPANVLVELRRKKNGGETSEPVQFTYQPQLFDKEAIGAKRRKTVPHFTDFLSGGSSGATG

For another experiment, the target named is T3, GST-Co-NF-kB (UniProt F1ARL5).
T3 sequence: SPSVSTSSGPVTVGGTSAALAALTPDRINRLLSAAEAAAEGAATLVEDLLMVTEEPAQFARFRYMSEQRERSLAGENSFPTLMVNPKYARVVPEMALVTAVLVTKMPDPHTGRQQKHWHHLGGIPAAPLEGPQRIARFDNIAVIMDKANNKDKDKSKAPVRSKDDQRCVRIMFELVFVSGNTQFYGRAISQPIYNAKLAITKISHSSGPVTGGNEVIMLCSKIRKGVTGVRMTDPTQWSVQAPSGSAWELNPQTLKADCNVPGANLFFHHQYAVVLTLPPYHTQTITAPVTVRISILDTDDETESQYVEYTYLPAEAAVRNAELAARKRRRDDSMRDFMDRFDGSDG

The target of the next experiment is T4, GST-Dm-Relish (UniProt Q94527).
T4 sequence: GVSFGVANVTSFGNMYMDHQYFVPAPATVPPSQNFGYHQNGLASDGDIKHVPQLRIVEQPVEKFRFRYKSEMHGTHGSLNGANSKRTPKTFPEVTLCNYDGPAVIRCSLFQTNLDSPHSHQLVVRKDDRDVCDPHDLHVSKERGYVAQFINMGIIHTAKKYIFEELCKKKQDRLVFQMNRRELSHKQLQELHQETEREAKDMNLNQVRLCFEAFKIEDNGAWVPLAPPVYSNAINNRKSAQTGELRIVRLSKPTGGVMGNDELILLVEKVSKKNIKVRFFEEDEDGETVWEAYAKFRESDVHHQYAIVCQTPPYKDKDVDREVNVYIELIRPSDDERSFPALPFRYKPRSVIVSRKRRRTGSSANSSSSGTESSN

In another experiment the target is T5, GST-Aq-NF-kB (UniProt A9Y5G7).
T5 sequence: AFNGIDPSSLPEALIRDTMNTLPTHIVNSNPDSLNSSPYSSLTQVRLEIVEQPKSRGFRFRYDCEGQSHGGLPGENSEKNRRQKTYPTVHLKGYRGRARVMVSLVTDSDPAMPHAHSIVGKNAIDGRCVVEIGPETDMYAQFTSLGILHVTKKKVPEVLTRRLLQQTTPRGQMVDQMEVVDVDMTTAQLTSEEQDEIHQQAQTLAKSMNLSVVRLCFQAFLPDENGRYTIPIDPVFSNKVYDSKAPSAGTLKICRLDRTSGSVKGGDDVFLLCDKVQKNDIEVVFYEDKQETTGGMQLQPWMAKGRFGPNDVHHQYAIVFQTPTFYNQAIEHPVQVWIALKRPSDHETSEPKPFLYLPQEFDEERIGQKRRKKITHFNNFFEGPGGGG

Consider “CCGATTAACATCATTAATGACGGTGATGTTAATCGGGTCTTGATTCGCTTGACGCTGCTG”, for which the binding signal in the experiment with GST-Ap-NF-kB RHD was 0.494 z-score; in experiment [1] it was -0.262 z-score; in the experiment with GST-Co-NF-kB, 0.667 z-score; with GST-Dm-Relish it was 0.579 z-score; with GST-Aq-NF-kB it was 0.368 z-score.
In the same order, the values of “CCGATTAACATCATAAGTGGCGTTGATGTTAATCGGGTCTTGATTCGCTTGACGCTGCTG” are -0.092 z-score, -0.554 z-score, -0.381 z-score, -0.0624 z-score and -0.264 z-score.
On to “CCGATTAACATCACATTGATGATTGATGTTAATCGGGTCTTGATTCGCTTGACGCTGCTG”, for which the binding signal with GST-Ap-NF-kB RHD was -0.311 z-score; in experiment [1], -0.852 z-score; with GST-Co-NF-kB, -0.17 z-score; with GST-Dm-Relish it was 0.14 z-score; with GST-Aq-NF-kB it was -0.194 z-score.
For the sequence “CCGATTAACATCAAATTTCCTGATGATGTTAATCGGGTCTTGATTCGCTTGACGCTGCTG”, the binding signal with GST-Ap-NF-kB RHD is 0.25 z-score; in experiment [1], -0.0581 z-score; with GST-Co-NF-kB, 0.567 z-score; with GST-Dm-Relish it was 0.0513 z-score; with GST-Aq-NF-kB, 0.383 z-score.
“CCGATTAACATCAAGTACCAGGGTGATGTTAATCGGGTCTTGATTCGCTTGACGCTGCTG”: the binding signal with GST-Ap-NF-kB RHD is 1.05 z-score; in experiment [1] it was -0.376 z-score; with GST-Co-NF-kB, 0.708 z-score; in the experiment with GST-Dm-Relish it was 1 z-score; with GST-Aq-NF-kB it was 0.569 z-score.
In the same order, the values of “CCGATTAACATCAAGATTCATATTGATGTTAATCGGGTCTTGATTCGCTTGACGCTGCTG” are -0.791 z-score, -0.797 z-score, -1.1 z-score, -1.04 z-score and -0.809 z-score.
Turning to “CCGATTAACATCAAGTATACACTTGATGTTAATCGGGTCTTGATTCGCTTGACGCTGCTG”, the binding signal with GST-Ap-NF-kB RHD was -1.7 z-score; in experiment [1], -0.118 z-score; with GST-Co-NF-kB, -1.41 z-score; with GST-Dm-Relish it was -0.173 z-score; with GST-Aq-NF-kB, -0.532 z-score.
In the same order, the values of “CCGATTAACATCACGCAGTCAGATGATGTTAATCGGGTCTTGATTCGCTTGACGCTGCTG” are -0.0846 z-score, -0.102 z-score, -0.938 z-score, 0.162 z-score and -0.461 z-score.
For “CCGATTAACATCAAGCCTATTTGTGATGTTAATCGGGTCTTGATTCGCTTGACGCTGCTG”, the binding signal with GST-Ap-NF-kB RHD was -0.536 z-score; in experiment [1], -0.816 z-score; with GST-Co-NF-kB, 0.167 z-score; in the experiment with GST-Dm-Relish, 0.0147 z-score; with GST-Aq-NF-kB, -0.367 z-score.
Turning to “CCGATTAACATCAATGGCGATGATGATGTTAATCGGGTCTTGATTCGCTTGACGCTGCTG”, the binding signal with GST-Ap-NF-kB RHD is -0.311 z-score; in experiment [1], -0.32 z-score; with GST-Co-NF-kB it was -0.0605 z-score; in the experiment with GST-Dm-Relish, -0.249 z-score; with GST-Aq-NF-kB it was -0.399 z-score.
For “CCGATTAACATCAGCCTATACCCTGATGTTAATCGGGTCTTGATTCGCTTGACGCTGCTG”, the binding signal with GST-Ap-NF-kB RHD is 0.292 z-score; in experiment [1], -0.0737 z-score; with GST-Co-NF-kB, 0.572 z-score; with GST-Dm-Relish, -0.667 z-score; with GST-Aq-NF-kB, 0.498 z-score.
For “CCGATTAACATCACACTGTTCAGTGATGTTAATCGGGTCTTGATTCGCTTGACGCTGCTG”, in that order: 0.352 z-score, 0.98 z-score, -0.622 z-score, 0.612 z-score and 0.164 z-score.
For “CCGATTAACATCAAGGCCTAGGGTGATGTTAATCGGGTCTTGATTCGCTTGACGCTGCTG”, in that order: 0.284 z-score, -0.218 z-score, -0.167 z-score, 0.257 z-score and 0.274 z-score.
In the same order, the values of “CCGATTAACATCACCTAACTTGATGATGTTAATCGGGTCTTGATTCGCTTGACGCTGCTG” are 0.187 z-score, -0.0189 z-score, 0.646 z-score, 0.352 z-score and 0.704 z-score.
On to “CCGATTAACATCATGCTGACGTGTGATGTTAATCGGGTCTTGATTCGCTTGACGCTGCTG”, for which the binding signal is -0.0388 z-score in the experiment with GST-Ap-NF-kB RHD; -1.25 z-score in experiment [1]; 0.22 z-score with GST-Co-NF-kB; 0.313 z-score with GST-Dm-Relish; 0.0317 z-score with GST-Aq-NF-kB.
In the same order, the values of “CCGATTAACATCAGTAATATTTATGATGTTAATCGGGTCTTGATTCGCTTGACGCTGCTG” are -0.82 z-score, 0.109 z-score, -0.236 z-score, 0.241 z-score and -0.287 z-score.
For “CCGATTAACATCAAATGTACTAATGATGTTAATCGGGTCTTGATTCGCTTGACGCTGCTG”, in that order: -0.262 z-score, 0.164 z-score, 0.296 z-score, 1.5 z-score and -0.171 z-score.
Take “CCGATTAACATCAGTGCGCGTGTTGATGTTAATCGGGTCTTGATTCGCTTGACGCTGCTG”: the binding signal with GST-Ap-NF-kB RHD is 0.586 z-score; in experiment [1], 0.00785 z-score; with GST-Co-NF-kB it was -0.207 z-score; in the experiment with GST-Dm-Relish, -0.288 z-score; in the experiment with GST-Aq-NF-kB, -0.322 z-score.
For “CCGATTAACATCAACACCTGCCCTGATGTTAATCGGGTCTTGATTCGCTTGACGCTGCTG”, in that order: 0.667 z-score, -0.108 z-score, 0.258 z-score, -0.227 z-score and 0.12 z-score.
For “CCGATTAACATCAATGTGAAATATGATGTTAATCGGGTCTTGATTCGCTTGACGCTGCTG”, in that order: -0.639 z-score, -0.154 z-score, 0.404 z-score, 0.327 z-score and -0.531 z-score.
For “CCGATTAACATCATTTGGCTGACTGATGTTAATCGGGTCTTGATTCGCTTGACGCTGCTG”, in that order: -0.283 z-score, -0.416 z-score, 0.35 z-score, -0.573 z-score and -0.237 z-score.
With “CCGATTAACATCACACTATCTACTGATGTTAATCGGGTCTTGATTCGCTTGACGCTGCTG”, the binding signal is 0.0945 z-score in the experiment with GST-Ap-NF-kB RHD; 0.124 z-score in experiment [1]; 0.471 z-score in the experiment with GST-Co-NF-kB; 0.283 z-score with GST-Dm-Relish; -0.268 z-score with GST-Aq-NF-kB.
On to “CCGATTAACATCAGAGGGCAAGATGATGTTAATCGGGTCTTGATTCGCTTGACGCTGCTG”, for which the binding signal was 0.0683 z-score with GST-Ap-NF-kB RHD; -0.0763 z-score in experiment [1]; 0.562 z-score with GST-Co-NF-kB; -0.892 z-score with GST-Dm-Relish; 0.199 z-score with GST-Aq-NF-kB.
For “CCGATTAACATCACTGCATGAAGTGATGTTAATCGGGTCTTGATTCGCTTGACGCTGCTG”, in that order: -0.964 z-score, 0.291 z-score, -1.65 z-score, -0.155 z-score and -0.508 z-score.
For “CCGATTAACATCAAGCACAACATTGATGTTAATCGGGTCTTGATTCGCTTGACGCTGCTG”, in that order: -0.571 z-score, 0.0588 z-score, -0.467 z-score, -0.116 z-score and -0.265 z-score.
Take “CCGATTAACATCAAAAATTCCAATGATGTTAATCGGGTCTTGATTCGCTTGACGCTGCTG”: the binding signal was -0.0716 z-score in the experiment with GST-Ap-NF-kB RHD; -0.181 z-score in experiment [1]; 0.122 z-score in the experiment with GST-Co-NF-kB; 0.906 z-score with GST-Dm-Relish; 0.956 z-score with GST-Aq-NF-kB.
For “CCGATTAACATCACACATTTCACTGATGTTAATCGGGTCTTGATTCGCTTGACGCTGCTG”, in that order: -0.0236 z-score, 0.00124 z-score, 0.473 z-score, 0.267 z-score and -0.165 z-score.
